Measurements taken from PubChem BioAssay AID485294 (National Center for Advancing Translational Sciences (NCATS), 2010).
Screen size: about 370,000 compounds; about 150 (0.041%) were called active. The inconclusive results got no clear call from the source; some entries with a clear call stand among them for comparison. Calls follow the shape of the dose curve; as a rule, active = well fitted inhibition curve with a large enough effect; inconclusive = small, poorly fitted or top-dose-only effect; inactive = flat fitted curve, though single readings scatter. Potencies of inconclusive entries are left out as doubtful fits.

Each compound was assayed against Beta-lactamase (Escherichia coli (strain K12)) (UniProt P00811) (assay: qHTS Inhibitors of AmpC Beta-Lactamase (assay with detergent)). Conditions: AmpC hydrolysis of nitrocefin, absorbance 480 nm, 0.01% Triton; activity change, negative = inhibition: at 114 µM (top of the series).
Sequence of UniProt P00811 (P00811 whole entry, looked up): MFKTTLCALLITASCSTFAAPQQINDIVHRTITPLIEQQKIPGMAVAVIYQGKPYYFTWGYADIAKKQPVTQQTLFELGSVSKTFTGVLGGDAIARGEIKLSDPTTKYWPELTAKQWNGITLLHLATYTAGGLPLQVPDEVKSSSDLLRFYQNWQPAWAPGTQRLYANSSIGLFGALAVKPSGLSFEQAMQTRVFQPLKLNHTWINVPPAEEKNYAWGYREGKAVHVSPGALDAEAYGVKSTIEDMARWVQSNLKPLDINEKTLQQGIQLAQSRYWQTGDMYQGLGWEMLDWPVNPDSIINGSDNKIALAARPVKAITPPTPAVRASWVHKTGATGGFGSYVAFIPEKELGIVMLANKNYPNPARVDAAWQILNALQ
Outline: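 20 mM phosphate pH 7.0 + 0.01% (detergent screen) or 0.0001% Triton X-100; 5.3 nM AmpC reagent; cpd preinc 15 min RT; nitrocefin (800 uM stock) to start; A480 q20 s × 4 min; Activity was normalised to no-enzyme and no-compound control wells.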
Also: nearly all actives have a fitted effect of over 25% in size.
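For activity change, negative = inhibition in this document: 0% = no-compound wells and -100% = no-enzyme wells.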
Potency is read from the fitted curve at half-maximal effect; tags tell the direction and shape of the fitted curve.

Compound | activity change, negative = inhibition | Potency
CCOCCCNC(=O)c1ccc(NC(=O)C2=CSCCO2)cc1 | inactive: 1.55% | –
CCCCCCOc1ccc(OCC(O)CN2C(=O)NC(C)(C)C2=O)cc1 (stereo unspecified) | inactive: -7.08% | –
COC(=O)C1=C(C)N=c2s/c(=C/c3cccs3)c(=O)n2C1c1ccc(F)cc1 (stereo unspecified) | – | inconclusive [inhibitor, single point]
CN(CC(=O)Nc1cc(S(=O)(=O)N2CCCC2)ccc1Cl)Cc1ccc2c(c1)OCO2 | inactive: -9.27% | –
CCCCNC(=O)CNC(=S)N(Cc1ccccc1F)C1CCCCC1 | – | inconclusive [inhibitor, full curve, poor fit]
CN(CC(=O)O)Cc1nc2ccccc2[nH]1 | – | inconclusive [inhibitor, single point]
COc1cc(C2N(c3ccc(Cl)cc3)C(=O)C3CCCN32)cc(OC)c1OC (stereo unspecified) | – | inconclusive [inhibitor, partial curve, poor fit]
COc1ccc(C(=O)NCC(=O)OCC(=O)NC(=O)NC2CCCCC2)cc1OC | – | inconclusive [inhibitor, full curve, poor fit]
Cc1nnc(SCC(=O)NCc2ccc(N(C)C)cc2)c2nn(-c3ccccc3)c(C)c12 | inactive: 20.7% | –
CCC(C)NS(=O)(=O)c1ccc(OC)c(Cl)c1Cl (stereo unspecified) | – | inconclusive [inhibitor, single point]
O=C(N/N=C/C(Cl)=C\c1ccccc1)c1cccs1 | inactive: 0.233% | –
CC(C)C(=O)Nc1ccc(Nc2ccccc2)cc1 | inactive: 1.11% | –
Cc1onc(-c2ccccc2)c1C(=O)N/N=C/c1cn(C)c2ccccc12 | – | inconclusive [inhibitor, full curve]
Cc1cccc(N(CC(=O)NCCSCc2ccccc2)S(C)(=O)=O)c1C | – | inconclusive [inhibitor, full curve, poor fit]
COc1ccc(S(=O)(=O)N2CCCCC2)cc1NC(=O)CN(C)C1CCCCC1 | inactive: -14.3% | –
CC1Cn2c(nnc2-c2ccc(F)cc2)S1 (stereo unspecified) | – | inconclusive [inhibitor, full curve]
O=C(/C=C/c1cccc([N+](=O)[O-])c1)NCc1ccc2c(c1)OCO2 | – | inconclusive [inhibitor, full curve, poor fit]
COc1ccc(S(=O)(=O)N/N=C\c2ccc(OC)c(COc3ccc(C)cc3[N+](=O)[O-])c2)cc1 | – | inconclusive [inhibitor, full curve, poor fit]
CC/C(=N\NC(=S)Nc1ccccc1)c1c(O)[nH]c(=O)[nH]c1=O | inactive: -8.41% | –
COc1ccc(C(=O)Nc2cccc(NC(=O)c3cccs3)c2)cc1OC | – | inconclusive [inhibitor, partial curve, poor fit]
Cc1csc(SCC(=O)NC(C)c2ccccc2)n1 (stereo unspecified) | inactive: -0.0069% | –
Cc1ccc(NC(=O)CSc2nc(-c3cccs3)cc(C(F)(F)F)n2)cc1C | inactive: 10.2% | –
Oc1c(CN2CCN(c3ccccc3)CC2)cc(Br)c2cccnc12 | – | inconclusive [inhibitor, partial curve]
CC(=O)N1CCCc2cc(S(=O)(=O)NC(C(=O)NCc3ccc(C)cc3)C(C)C)ccc21 (stereo unspecified) | – | inconclusive [inhibitor, partial curve, poor fit]

Compound | activity change, negative = inhibition | Potency
O=[N+]([O-])c1ccc(N2CCNCC2)cc1NCc1cccnc1 | – | inconclusive [inhibitor, full curve, poor fit]
CN1C(=O)C(=Cc2ccc(-c3cccc(Cl)c3)o2)C(=O)N(C)C1=O | – | inconclusive [inhibitor, full curve, poor fit]
C=CCN(c1ccccc1)S(=O)(=O)c1cccc(C(=O)NC2CCN(Cc3ccccc3)CC2)c1 | inactive: -11.6% | –
CN1CCN(c2ccc(S(=O)(=O)N3CCCCC3)cc2[N+](=O)[O-])CC1 | – | inconclusive [inhibitor, single point]
CCCCCn1c(=N)c(S(=O)(=O)c2ccccc2)cc2c(=O)n3cccc(C)c3nc21 | inactive: 10.8% | –
CCCCOCC(O)CN1CCN(C(C)=O)CC1 (stereo unspecified) | inactive: -2.12% | –
CC1=C(C(=O)Nc2cc(C(=O)N3CCN(c4cccc(C)c4)C(C)C3)ccc2C)SCCO1 (stereo unspecified) | inactive: -4.96% | –
O=C(COc1ccccc1[N+](=O)[O-])N/N=C/c1cccc(OC(=O)c2ccc3c(c2)OCO3)c1 | – | inconclusive [inhibitor, full curve]
O=C(Nc1ccc(F)cc1)C1CC2CCC1C2 (stereo unspecified) | inactive: 7.32% | –
CCOC(=O)c1cnc(SC2CC(=O)N(c3ccccc3)C2=O)nc1N (stereo unspecified) | inactive: -12.4% | –
CC(C)CCOc1ccc(Oc2nc(N(C)C)nc(N(C)C)n2)nn1 | inactive: 4.45% | –
O=Cc1cc([N+](=O)[O-])ccc1N1CCOCC1 | – | inconclusive [inhibitor, full curve]
CC1=NN(C(C#N)c2ccccc2C)C(C)(C)C1 (stereo unspecified) | – | inconclusive [inhibitor, full curve, poor fit]
Cc1ccc(CC(=O)NC2CCN(C)CC2)cc1 | – | inconclusive [inhibitor, partial curve]
CCCCn1c(=N)n(CC(=O)c2ccc([N+](=O)[O-])cc2)c2ccccc21 | inactive: -9.73% | –
O=C(Cn1nnc(-c2ccc(OCc3ccccc3F)cc2)n1)N1CCOCC1 | – | inconclusive [inhibitor, partial curve, poor fit]
CCOC(=O)c1cccc(NS(=O)(=O)c2c(C)nc3sc(C)cn3c2=O)c1 | inactive: -1.73% | –
O=C(NCCc1cccnc1)c1cc(COc2ccc(F)cc2Cl)on1 | – | inconclusive [inhibitor, full curve]
Cc1ccc(S(=O)(=O)NCCC(=O)NCC(=O)Nc2c(C)cccc2C)cc1C | – | inconclusive [inhibitor, partial curve]
COc1cc(Cl)c(C)cc1Nc1c2c(nc3ccccc13)CCC2 | inactive: 6.86% | –
Cc1occc1C(=O)Nc1c(F)c(F)c(F)c(F)c1F | – | inconclusive [inhibitor, full curve, poor fit]
O=C(COc1ccc(Cl)cc1Br)Nc1ccncc1 | inactive: -11.9% | –
COc1cc(C2NC(=O)c3ccccc3O2)ccc1OC(C)C (stereo unspecified) | – | inconclusive [inhibitor, full curve]
CCOC(=O)c1cccc(NC(=O)CSc2nnc(C)n2CC2CCCO2)c1 (stereo unspecified) | inactive: 7.89% | –

Compound | activity change, negative = inhibition | Potency
CCCCN(CC)S(=O)(=O)c1ccccc1 | – | inconclusive [inhibitor, partial curve, poor fit]
COc1cccc(-c2nc(C(N)=O)c3[nH]c(=O)n(-c4ccccc4)c3n2)c1OC | – | inconclusive [inhibitor, full curve]
CCCC(C(=O)NC1CCCC1)N(C(=O)Cn1nnc(-c2ccc(C)o2)n1)c1ccccc1F (stereo unspecified) | – | inconclusive [inhibitor, full curve, poor fit]
Cc1[nH]c2ccccc2c1/C=N/NS(=O)(=O)c1ccccc1 | – | inconclusive [inhibitor, single point]
O=C(COc1ccc2oc(-c3ccccc3)cc(=O)c2c1)Nc1ccccc1 | – | inconclusive [inhibitor, full curve, poor fit]
Cc1cccc(Nc2ccc(C(=O)O)cc2[N+](=O)[O-])c1C | – | inconclusive [inhibitor, full curve, poor fit]
O=C1N(Cc2ccccc2F)c2ccccc2C12OCCCO2 | – | inconclusive [inhibitor, full curve, poor fit]
CS(=O)(=O)N1CCCC(C(=O)Nc2ccccc2C(F)(F)F)C1 (stereo unspecified) | – | inconclusive [inhibitor, full curve, poor fit]
CCCNC(=O)c1ccc(Cn2c(=S)[nH]c3c([nH]c4ccc(OC)cc43)c2=O)cc1 | inactive: 10.3% | –
CCCSc1cc(NCCOC(C)=O)c([N+](=O)[O-])c2nonc12 | – | inconclusive [inhibitor, full curve, poor fit]
COc1ccc(Cl)cc1Nc1nc(-c2sc(NC(=O)C(C)(C)C)nc2C)cs1 | inactive: -3.3% | –
CCOC(=O)c1c(NC(=O)CSc2nnnn2-c2ccccc2OCC)sc2c1CC(C)(C)NC2(C)C | – | inconclusive [inhibitor, full curve, poor fit]
CC1(C)CC(=O)C(CS(=O)(=O)c2ccccc2)=C(O)C1 | – | inconclusive [inhibitor, partial curve]
CC(C)Oc1ccc(Cc2cnc(N)nc2N)cc1 | inactive: 0.281% | –
CC(C)(CNC(=O)c1sc2cc(F)ccc2c1Cl)N1CCOCC1 | – | inconclusive [inhibitor, full curve, poor fit]
O=C(CC1CCCCC1)NCCOc1ccccc1 | inactive: -1.83% | –
Cc1ccc(SCc2nc(-c3ccc(C(=O)NCc4ccccc4Cl)cc3)oc2C)cc1 | – | inconclusive [inhibitor, single point]
CC(C)Cc1ccc(C(C)C(=O)Nc2nccs2)cc1 (stereo unspecified) | inactive: 4.13% | –
Cc1ccc2c(c1)-c1c(cnn1CC(=O)N1CCCN(Cc3ccccc3F)C1)CO2 | – | inconclusive [inhibitor, full curve, poor fit]
CC(NC(=S)NC1CCC(C(C)(C)C)CC1)c1ccccc1 (stereo unspecified) | – | inconclusive [inhibitor, single point]
COc1ccc(N(C(=O)Cn2nnc3ccccc32)C(C(=O)NCc2ccco2)c2ccc(C)o2)cc1 (stereo unspecified) | – | inconclusive [inhibitor, full curve, poor fit]
Cc1cc2cc(CNC(=O)Nc3cccc(Cl)c3)ccc2n1C | – | inconclusive [inhibitor, full curve]
CCOc1ccc(-n2c(N)c(C(=O)N3CCN(C)CC3)sc2=S)cc1 | inactive: -3.8% | –
